Measured values from paper PMC4336329 (PLoS ONE, 2015).
Out of some 310,000 compounds screened, about 14,000 (4.5%) showed an effect of 50% or more. The effect is printed as a negative number. This is one part of the list.

target: human ether-à-go-go-related gene (hERG) potassium channel (human, UniProt Q12809); assay: primary screen, population patch clamp on CHO cells stably expressing hERG
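Also: peak tail current of the secondary pulse compared with the same well before compound.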

Sequence of human ether-à-go-go-related gene (hERG) potassium channel (Q12809 whole entry, looked up): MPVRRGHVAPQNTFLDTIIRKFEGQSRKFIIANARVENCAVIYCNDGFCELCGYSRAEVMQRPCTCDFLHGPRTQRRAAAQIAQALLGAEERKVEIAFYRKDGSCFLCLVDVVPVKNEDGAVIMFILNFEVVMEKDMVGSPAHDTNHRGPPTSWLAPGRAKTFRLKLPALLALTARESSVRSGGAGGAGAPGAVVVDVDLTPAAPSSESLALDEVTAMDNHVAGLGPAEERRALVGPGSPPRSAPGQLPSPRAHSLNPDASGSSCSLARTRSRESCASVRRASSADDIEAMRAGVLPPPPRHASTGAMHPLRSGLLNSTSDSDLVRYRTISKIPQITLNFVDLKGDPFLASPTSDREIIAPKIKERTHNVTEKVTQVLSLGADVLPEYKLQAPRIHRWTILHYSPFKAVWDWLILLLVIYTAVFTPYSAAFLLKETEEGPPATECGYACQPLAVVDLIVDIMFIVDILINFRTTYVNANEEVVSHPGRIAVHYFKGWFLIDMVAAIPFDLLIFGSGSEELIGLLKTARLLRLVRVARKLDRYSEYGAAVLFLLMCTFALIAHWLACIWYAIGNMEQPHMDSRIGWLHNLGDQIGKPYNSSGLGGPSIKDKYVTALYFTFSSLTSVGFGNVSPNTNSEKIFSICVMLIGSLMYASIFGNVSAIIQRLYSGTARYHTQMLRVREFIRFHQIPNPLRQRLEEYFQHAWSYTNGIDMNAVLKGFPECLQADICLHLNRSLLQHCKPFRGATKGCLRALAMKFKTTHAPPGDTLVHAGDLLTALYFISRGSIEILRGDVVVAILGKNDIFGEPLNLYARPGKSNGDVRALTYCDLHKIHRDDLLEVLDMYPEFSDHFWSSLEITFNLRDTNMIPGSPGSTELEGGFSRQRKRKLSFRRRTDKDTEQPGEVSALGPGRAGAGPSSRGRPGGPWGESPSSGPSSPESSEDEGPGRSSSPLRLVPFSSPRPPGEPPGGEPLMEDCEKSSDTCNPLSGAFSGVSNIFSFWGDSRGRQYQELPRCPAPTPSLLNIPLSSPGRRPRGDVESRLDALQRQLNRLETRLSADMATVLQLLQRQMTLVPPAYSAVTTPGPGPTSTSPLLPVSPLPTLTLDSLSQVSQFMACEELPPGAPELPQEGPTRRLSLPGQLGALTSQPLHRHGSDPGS

| SMILES | hERG current change (%, negative = inhibition) at 10uM [%] |
| --- | --- |
| COc1ccc(CCNc2c(C=O)c(=O)[nH]c3ccccc23)cc1OC | 9.61 |
| O=C(Nc1ccc2oc(=O)ccc2c1)c1cc([N+](=O)[O-])ccc1N1CCOCC1 | -41.8 |
| CC(C)CCn1cnc2c1c(=O)n(CC(=O)NC(N)=O)c(=O)n2Cc1ccccc1 | 6.8 |
| CC(C)=CC(=O)Nc1ccc(OCc2ccccc2)cc1 | 4.31 |
| CCC(=O)N1CCC(c2ccc(OC)cc2)=N1 | 15.6 |
| COc1cc(NC(=O)c2sc3ncn(CC(=O)N4CCCCC4)c(=O)c3c2C)cc(OC)c1OC | -4.83 |
| COc1cc2c(=O)n(CCCC(=O)NCC3CCCO3)c(=O)n(CC(=O)c3ccc(F)cc3)c2cc1OC (stereo not drawn) | -2.1 |
| COc1ccc(CN(C(=O)c2snc(C(N)=O)c2N)C(C(=O)NC2CCCC2)c2ccc(OC)cc2)cc1 (stereo not drawn) | -20.4 |
| C/C=C/c1ccc(OCC(=O)OCc2csc(Nc3ccc(C)cc3)n2)c(OC)c1 | 7.71 |
| COc1ccc(CN2C(=O)NC(=O)/C(=C\c3cc(OC)c(OC)c(OC)c3)C2=O)cc1 | 16.6 |
| Cc1ccc(N2CC(O)=C(c3ccccc3)C2=N)cc1 | -3.56 |
| CCCN(CCC)C(=O)Cc1ccc(F)cc1 | 15.9 |
| CC(=O)c1ccc(N2CCN(C(=O)/C=C/c3ccc4ccccc4n3)CC2)cc1 | -54.4 |
| CC(=O)c1cccc(NC(=O)C2CCN(S(=O)(=O)c3ccccc3)CC2)c1 | -6.37 |
| COc1ccc(CN(C)S(=O)(=O)c2nnc(NC(=O)c3cccc(OC)c3)s2)cc1 | 20 |
| Cc1cc(C(=O)Nc2ccc3c(c2)OCO3)no1 | 26.7 |
| C=CCc1ccc(OCC(O)CN2CCCCC2)c(OC)c1 (stereo not drawn) | -54.8 |
| O=C(CN1C(=O)CCS(=O)(=O)c2ccccc21)NCCc1ccccc1 | 10.3 |
| O=C(/C=C/c1ccc(Cl)cc1Cl)N(Cc1ccccc1)C1CCS(=O)(=O)C1 (stereo not drawn) | -20.8 |
| O=C(/C=C/Nc1ccccc1Br)c1ccccn1 | -2.51 |
| CC(=O)Nc1ccc(N=Cc2nc(-c3ccc(C)cc3)oc2O)cc1 | 2.43 |
| CCOc1ccc(NC(=O)CN(C)C(=O)c2csc3c2CCCC3)cc1OCC | -19.4 |

| SMILES | hERG current change (%, negative = inhibition) at 10uM [%] |
| --- | --- |
| Cn1ccnc1C(=O)c1cc(SCC(=O)NCc2ccccc2)nc2ccccc12 | -12.1 |
| O=C(NNC(=O)C1CCN(c2ncccn2)CC1)c1ccncc1 | 21 |
| CC(=O)Nc1cccc(NC(=O)c2cc([N+](=O)[O-])ccc2N2CCCCC2)c1 | -69.3 |
| O=C(c1cnccn1)N(Cc1cccs1)C1(C(=O)NC2CCCCC2)CCCCC1 | -16.5 |
| C/C(=N\NC(=O)c1cccc(N/N=C(\C)c2ccccc2)c1)c1ccccc1 | -15.5 |
| COC(=O)c1ccc2[nH]c([C@H](C)O)c([C@H](C)O)c2c1 | 5.2 |
| CCS(=O)(=O)c1ccc(O)c(NC(=O)NC2CCCCC2)c1 | 16.3 |
| CC(CN1CCOCC1)C(=O)O.Cl (stereo not drawn) | -15.6 |
| CCOC(=O)CN1C(=O)/C(=C/c2ccc(Cl)cc2)Oc2ccccc21 | 2.31 |
| CCN(CC)S(=O)(=O)c1cccc(C(=O)Oc2cccc(NC(=O)c3cccs3)c2)c1 | -8.91 |
| COc1cc(NC(=O)c2cc3sccc3n2C)cc(OC)c1 | -19.5 |
| COc1ccc2cc(C(=O)N3CCN(c4ccc(F)cc4)CC3)[nH]c2c1 | 13.7 |
| Cc1ccccc1CCN(C(=O)Cn1nnc2ccccc21)C(C(=O)NC(C)(C)C)c1ccsc1 (stereo not drawn) | -2.38 |
| CC(C)Cc1nnc(NC(=O)CCC(=O)Nc2ccc3cn[nH]c3c2)s1 | 10.9 |
| Cc1ccc(N2CCN(C(=O)c3cccs3)CC2)cc1C | 2.97 |
| CCOc1cc(N2CCOCC2)c(OCC)cc1NC(=O)COC(=O)c1cccc2ccccc12 | 33.6 |
| Cc1ccc(CN2CCN(CC(=O)O)C2=O)cc1 | 41.5 |
| COCCn1c(SCC(=O)N2CCc3ccccc3C2)nc2ccccc2c1=O | -43.8 |
| Cc1cnc(NC(=O)CN(C)S(=O)(=O)c2ccc(Cl)cc2)s1 | -1.68 |
| COc1ccc2nc(NC(=O)CNS(=O)(=O)c3cccs3)sc2c1 | -1.25 |
| CC1(NC(=O)CCc2nc3sc4c(c3c(=O)[nH]2)CCCC4)CCS(=O)(=O)C1 (stereo not drawn) | -2.89 |
| O=C(O)C(=O)/C(=C\c1ccccc1)c1ccc2ccccc2n1 | 13.9 |

| SMILES | hERG current change (%, negative = inhibition) at 10uM [%] |
| --- | --- |
| COc1ccc(-c2noc(-c3ccccc3C(=O)Nc3cccnc3)n2)cc1 | -12.5 |
| CCN(CC)C(=O)c1ccc(NC(=O)c2cccc(S(=O)(=O)N3CCN(C)CC3)c2)cc1 | 6.98 |
| CCn1c(=O)c(=O)[nH]c2cc(C(=O)NCc3ccc(F)cc3)ccc21 | -13 |
| CCN(CC)c1ccc(/C=N/Nc2cccc(C)c2)c(O)c1 | 7.93 |
| C#CCN1C(=O)C2(C(C#N)=C(N)OC(C)=C2C(=O)OCc2ccccc2)c2ccccc21 (stereo not drawn) | -10.7 |
| C/C(CC(=O)Nc1ccc([N+](=O)[O-])cc1)=N/NC(=O)C1CC12CCC2 (stereo not drawn) | -37.7 |
| CC(C)N1C(=O)CCC1C(=O)N1CCC(Cc2ccccc2)CC1 (stereo not drawn) | -25.3 |
| COc1ccc([C@@H]2OC2(C(N)=O)C(N)=O)cc1 | 6.32 |
| O=C(NCCN1CCOCC1)C(=O)NCC1OCCCN1S(=O)(=O)c1ccc(F)cc1 (stereo not drawn) | 11 |
| CCOC(=O)c1sc(NC(=O)c2cc3ccccc3o2)nc1C | -3.89 |
| CC(CC(=O)N1CCN(c2ccccc2)CC1)S(=O)(=O)c1ccc2c(c1)NC(=O)CO2 (stereo not drawn) | -20.1 |
| O=C(Nc1ccc(Br)c(C(F)(F)F)c1)c1ccc(C(F)(F)F)cc1 | 11.8 |
| CC(C)CN(C(=O)COC(=O)C1CC1)c1c(N)n(Cc2ccccc2)c(=O)[nH]c1=O | 13 |
| Cc1nnc(NC(=O)CSc2nnc(-c3ccccc3)n2C)s1 | 14.9 |
| CC(C)C(c1nnnn1Cc1cccs1)N1CCN(c2ccccc2)CC1 (stereo not drawn) | 20 |
| CCOC(=O)C1CCN(C(=O)C2CCN(S(=O)(=O)c3ccc4c(c3)CC(C)N4C(C)=O)CC2)CC1 (stereo not drawn) | 16.6 |
| CCOC(=O)N1CCN(C(=O)/C(=C/c2cccs2)NC(=O)c2cccs2)CC1 | -45.7 |
| Nc1nc(NC(=O)c2ccccc2)nn1-c1ccccc1 | -70.9 |
| CN(c1ccc(C(=O)NCc2ccncc2)cc1)S(C)(=O)=O | 0.455 |
| CCOC(=O)c1c(-c2ccccc2Cl)cn2ccccc12 | -13.9 |
| O=C(CCCO)N/N=C/c1ccccc1[N+](=O)[O-] | 20.7 |
| Cc1cc(N2CCN(C)CC2)nc2ccc(NC(=S)N3CCCCCC3)cc12 | -67.2 |

| SMILES | hERG current change (%, negative = inhibition) at 10uM [%] |
| --- | --- |
| Cc1c(C#N)sc(C(N)=O)c1C | 0.542 |
| O=C(NCc1nnnn1-c1ccc(F)cc1)C1CC(=O)N(c2ccc(F)cc2)C1 (stereo not drawn) | -34.7 |
| Cc1ccc(NC(=S)NCc2ccccc2)c(C)c1 | 2.15 |
| Cc1ccc(/C=c2\sc3nc(-c4cccnc4)nn3c2=O)cc1 | -7.97 |
| COc1ccc(-c2c(=O)n(OCc3ccccn3)c3ccccc3[n+]2[O-])cc1OC | 29.8 |
| O=C1[C@@H]2[C@H](C(=O)N1Cc1cccnc1)[C@H]1C=C[C@@H]2C1 | -3.89 |
| CC(Oc1ccc(Cl)cc1)C(=O)/C=C/N(C)C (stereo not drawn) | -11 |
| O=C(COc1ccccc1F)NCc1ccc(-n2cccc2)cc1 | 4.13 |
| CCc1ccc(NS(=O)(=O)c2ccc(OC)c(C)c2)cc1 | -7.22 |
| CN(CC(=O)Nc1ccc(N2CCOCC2)cc1)C(=O)c1cc2c(s1)CCCC2 | -17.9 |
| NS(=O)(=O)c1ccc(CCNC(=O)/C=C/c2ccccc2[N+](=O)[O-])cc1 | 6.37 |
| CCCCCn1c(=O)c(C(=O)Nc2cnccn2)c(O)c2ccccc21 | 25.1 |
| Cn1c(=O)c2cn(-c3ccccc3)cc2n(C)c1=O | 0.538 |
| Fc1cccc2ncnc(OCc3ccccc3)c12 | 1.71 |
| Cc1ccc(S(=O)(=O)N(CC(=O)N2CCCC2)C2CCCCC2)cc1 | -37.7 |
| Cc1ccc2[nH]c(=O)c(CN(C(=O)c3cccc([N+](=O)[O-])c3)C(C)C)cc2c1 | -50.5 |
| O=C(NCCNC(=O)C(c1ccccc1)c1ccccc1)c1ccco1 | 13.4 |
| O=C(Cn1c(=O)n(CC2CS2)c2ccccc21)N1CCCCC1 (stereo not drawn) | 7.21 |
| Nc1nc(C2CC(=O)OC23CCCCC3)cs1 (stereo not drawn) | 10.5 |
| CCN1CCN(CCCN(Cc2cccs2)C(=S)Nc2ccccc2C)CC1 | -54.4 |
| O=[N+]([O-])c1c(Nc2ccc(O)cc2)cc(N2CCOCC2)c2nonc12 | 1.3 |
